Like-named read-outs stand apart in the source and are kept apart here. For part of these data: Part of at least one peptide drawing is inferred or uncertain, most often the ends. For part of these data: For at least one compound, name, drawing or mass did not settle the structure. Numbered stars: 1 amine (or outer) side, 2 acyl side, 3 side chain; on linkers, the order of the positions; unused ones are H or OH. Square brackets hold non-standard residues; d marks the D form. Peptide text beside a SMILES is read from it. * marks the point of attachment. X5 = CC(C)C/C(=C\C[C@H](CC(C)C)N[*:1])C(=O)[*:2]; NH(4-amidinobenzyl) = N=C(N)c1ccc(CN*)cc1; PEG8 = NCCOCCOCCOCCOCCOCCOCCOCCOCCC(=O)O; X1 = CC(C)CN(CC(=O)[*:2])N[*:1]; X2 = N=C(N)NC/C=C/CN*
Assays:
[1] = target: furin (Homo sapiens, UniProt P09958); assay: Inhibition constant (Ki) for furin; assay type: biochemical
furin, sequence (P09958 108-794): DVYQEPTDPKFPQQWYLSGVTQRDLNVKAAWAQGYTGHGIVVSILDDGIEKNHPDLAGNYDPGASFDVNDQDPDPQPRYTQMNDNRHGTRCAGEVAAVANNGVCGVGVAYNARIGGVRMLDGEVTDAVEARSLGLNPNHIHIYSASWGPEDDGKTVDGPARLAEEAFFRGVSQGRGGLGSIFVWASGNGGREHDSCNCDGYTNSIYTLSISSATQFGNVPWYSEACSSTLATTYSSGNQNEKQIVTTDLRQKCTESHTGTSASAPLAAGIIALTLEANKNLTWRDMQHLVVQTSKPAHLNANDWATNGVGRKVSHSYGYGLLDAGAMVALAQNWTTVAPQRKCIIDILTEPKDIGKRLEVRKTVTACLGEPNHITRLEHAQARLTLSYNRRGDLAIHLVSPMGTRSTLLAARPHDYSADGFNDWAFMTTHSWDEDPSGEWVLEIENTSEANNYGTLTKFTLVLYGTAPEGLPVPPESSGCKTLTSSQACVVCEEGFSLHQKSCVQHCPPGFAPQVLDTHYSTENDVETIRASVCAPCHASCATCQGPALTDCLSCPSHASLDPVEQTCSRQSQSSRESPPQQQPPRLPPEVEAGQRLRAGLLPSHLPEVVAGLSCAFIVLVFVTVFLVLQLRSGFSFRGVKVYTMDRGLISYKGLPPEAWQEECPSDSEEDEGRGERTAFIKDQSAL

[2] = target: T1, PACE4 (Homo sapiens, UniProt P29122); assay: Inhibition constant (Ki) for PACE4; assay type: biochemical
T1 sequence (P29122 150-969): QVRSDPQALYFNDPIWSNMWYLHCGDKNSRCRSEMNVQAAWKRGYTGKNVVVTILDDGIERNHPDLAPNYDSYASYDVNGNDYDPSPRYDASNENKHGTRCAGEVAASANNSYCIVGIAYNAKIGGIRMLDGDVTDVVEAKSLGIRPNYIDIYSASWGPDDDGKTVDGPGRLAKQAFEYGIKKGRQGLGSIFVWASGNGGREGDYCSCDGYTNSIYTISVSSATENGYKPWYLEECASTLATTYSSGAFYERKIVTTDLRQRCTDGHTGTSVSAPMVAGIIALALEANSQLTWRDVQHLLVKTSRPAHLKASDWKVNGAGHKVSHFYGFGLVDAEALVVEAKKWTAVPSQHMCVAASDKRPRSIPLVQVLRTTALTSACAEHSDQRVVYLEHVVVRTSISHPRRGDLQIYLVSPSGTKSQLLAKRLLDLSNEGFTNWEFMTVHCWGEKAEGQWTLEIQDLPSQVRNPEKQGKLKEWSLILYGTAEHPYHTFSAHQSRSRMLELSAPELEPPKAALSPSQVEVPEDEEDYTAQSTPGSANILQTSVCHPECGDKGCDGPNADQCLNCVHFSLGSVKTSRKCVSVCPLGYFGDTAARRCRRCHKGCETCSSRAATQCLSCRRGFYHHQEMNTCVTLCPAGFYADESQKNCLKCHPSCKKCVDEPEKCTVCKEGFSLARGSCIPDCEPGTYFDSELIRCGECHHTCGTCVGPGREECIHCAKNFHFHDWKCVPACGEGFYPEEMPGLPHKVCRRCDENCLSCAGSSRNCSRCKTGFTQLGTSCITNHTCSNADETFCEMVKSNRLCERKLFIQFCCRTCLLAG

[3] = tested on: DU145 cells; conditions: MTT, FIG. 1C, FIG. 7
[4] = Table 1, read-out: Ki for PACE4
[5] = read-out: Ki for PACE4, Table 1

For `CC(=O)N[C@@H](CC(C)C)C(=O)N[C@@H](CC(C)C)C(=O)N[C@@H](CC(C)C)C(=O)N[C@@H](CC(C)C)C(=O)N[C@@H](CCCN=C(N)N)C(=O)N[C@H](C(=O)N[C@@H](CCCCN)C(=O)NCc1ccc(C(=N)N)cc1)C(C)C` [ML-[AMBA]^P1, Ac-LLLLRVK-[AMBA]] (Ac-LLLLRVK-{NH(4-amidinobenzyl)}), the Ki ([1]; Table 3; read-out: Ki Furin) was 5.97 nM, the Ki [2, 4] was 0.25 nM and the Ki ([2]; Table 2, read-out: Ki for PACE4) was 0.25 nM. The Ki ([2]; Table 3, read-out: Ki PACE4) was 0.25 nM.
For `CC(=O)N[C@@H](CC(C)C)C(=O)N[C@@H](CC(C)C)C(=O)N[C@@H](CC(C)C)C(=O)N[C@@H](CC(C)C)C(=O)N[C@@H](CCCNC(=N)N)C(=O)N[C@H](C(=O)N[C@@H](CCCCN)C(=O)NC/C=C/CNC(=N)N)C(C)C` [ML-[ΔR-CO2]^P1, Ac-LLLLRVK-[ΔR-COO]] (Ac-LLLLRVK-X2), the “Anti-proliferative activity in DU145 cells (in words)” value [3] was “IC50 lower than the IC50 of the multi-Leu control”.
`CC(=O)N[C@H](C/C=C(\CC(C)C)C(=O)N[C@@H](CC(C)C)C(=O)N[C@@H](CC(C)C)C(=O)N[C@@H](CCCNC(=N)N)C(=O)N[C@H](C(=O)N[C@@H](CCCCN)C(=O)N[C@@H](CCCNC(=N)N)C(N)=O)C(C)C)CC(C)C` [ML[c-ene]^P8-P7, Ac-L═LLLRVKR-NH2] (Ac-[X5]LLRVKR-NH2) was tested, and the Ki [2, 4] was 247 nM.
In the case of `CC(=O)NN(CC(=O)N[C@@H](CC(C)C)C(=O)N[C@@H](CC(C)C)C(=O)N[C@@H](CC(C)C)C(=O)N[C@@H](CCCNC(=N)N)C(=O)N[C@H](C(=O)N[C@@H](CCCCN)C(=O)NC/C=C/CNC(=N)N)C(C)C)CC(C)C` [[Azaβ3L]^P8-ML-[ΔR-CO2]^P1, Ac-[Azaβ3L]LLLRVKR-[ΔR-COO]] (Ac-[X1]LLLRVK-X2), the Ki ([1]; read-out: Ki Furin; Table 3) is reported as 7.9 nM, the Ki ([2]; read-out: Ki PACE4, Table 3) is reported as 2.11 nM and the Ki [2, 5] is reported as 2.1 nM. It also gave a Ki ([2]; read-out: Ki for PACE4, Table 2) of 2.1 nM.
In the case of `CC(=O)N[C@H](CC(C)C)C(=O)N[C@@H](CC(C)C)C(=O)N[C@@H](CC(C)C)C(=O)N[C@@H](CC(C)C)C(=O)N[C@@H](CCCNC(=N)N)C(=O)N[C@H](C(=O)N[C@@H](CCCCN)C(=O)NCc1ccc(C(=N)N)cc1)C(C)C` [[D-Leu]^P8-ML-[AMBA]^P1, Ac-[D-Leu]-LLLRVK-[AMBA]] (Ac-[dL]LLLRVK-{NH(4-amidinobenzyl)}), the Ki ([1]; read-out: Ki Furin; Table 3) is reported as 13 nM.
For `CC(=O)NCCOCCOCCOCCOCCOCCOCCOCCOCCC(=O)N[C@@H](CC(C)C)C(=O)N[C@@H](CC(C)C)C(=O)N[C@@H](CC(C)C)C(=O)N[C@@H](CC(C)C)C(=O)N[C@@H](CCCNC(=N)N)C(=O)N[C@H](C(=O)N[C@@H](CCCCN)C(=O)N[C@@H](CCCNC(=N)N)C(N)=O)C(C)C` [[H2N-PEG8]-ML, Ac-[HN-PEG8]-LLLLRVKR-NH2] (Ac-[PEG8]LLLLRVKR-NH2), the Ki [2, 5] was 23 nM.

— US9809621B2, “Stable peptide-based PACE4 inhibitors” (SOCPRA SCIENCES SANTÉ ET HUMAINES S.E.C., priority 2011, dated 2017)
